{"source": "PubChem BioAssay AID2100", "about": "(National Center for Advancing Translational Sciences (NCATS), 2009)", "note": "In all, about 300,000 compounds went through this assay and about 1,200 (0.4%) were called active. This list was built around the results that the source calls inconclusive (neither active nor inactive); the mix of calls is not that of the screen. Calls come from the whole dose curve; as a rule, active = well fitted inhibition curve with a large enough effect; inconclusive = small, poorly fitted or top-dose-only effect, or another doubt; inactive = no such curve, though single readings can be large or run the other way. Potencies beside an inconclusive call are fits to weak or partial responses and may not hold up. Potency is the fitted concentration of half-maximal effect."}
{"biological_target": "Lysosomal alpha-glucosidase (Homo sapiens) (UniProt P10253)", "test": "qHTS Assay for Inhibitors and Activators of Human alpha-Glucosidase Cleavage of Glycogen;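 for activity change, negative = inhibition: 0% = full enzyme reaction and -100% = no-enzyme basal signal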", "details": "recombinant GAA, glycogen substrate, Amplex Red glucose oxidase fluorescence; activity change, negative = inhibition: at 76.4 µM (top of the series) unless noted", "summary_of_the_method": "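Recombinant human alpha-glucosidase (4 nM final) hydrolysed bovine liver glycogen (30 ug) for 40 min at 37 C in pH 5.0 citrate/phosphate with 0.01% Tween-20. Released glucose detected by glucose oxidase/Amplex Red, Ex 573/Em 610 nm. Compounds up to 77 uM; AC50 from Hill fits.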"}
{"smiles": "O=C(NNC(=O)c1sccc1-n1cccc1)c1cccs1", "Potency": "inconclusive: 31.6 µM [inhibitor, partial curve]"}
{"smiles": "C/C(CC(=O)Nc1ccc(N(C)C)cc1)=N\\NC(=O)C(=O)NCc1ccccc1", "Potency": "inconclusive: 39.5 µM [inhibitor, single point]"}
{"smiles": "C/C(=N\\Nc1ccccn1)c1ccc(C(C)C)cc1", "Potency": "inconclusive: 12.5 µM [inhibitor, partial curve]"}
{"smiles": "CCc1cc(C(=O)N2CCc3c([nH]c4ccccc34)C2c2ccc(OC)cc2F)no1", "note": "(centres undefined)", "Potency": "inconclusive: 20 µM [inhibitor, partial curve]"}
{"smiles": "CCOc1cc(/C=C2/SC(=S)N(Cc3ccccc3)C2=O)ccc1O", "Potency": "inconclusive: 50.1 µM [inhibitor, single point]"}
{"smiles": "O=c1oc2ccccc2c(NC2CCCCC2)c1NS(=O)(=O)c1ccc(Br)cc1", "Potency": "inconclusive: 31.6 µM [inhibitor, single point]"}
{"smiles": "C/C(=C\\C(=O)c1cccnc1)Nc1ccc(O)cc1", "Potency": "active: 14 µM"}
{"smiles": "CCS(=O)(=O)Nc1c(C(=O)OC)[nH]c2ccccc12", "Potency": "active: 4.47 µM"}
{"smiles": "O=C(c1cccnc1)N(c1cc2sc(=O)oc2c2ccccc12)S(=O)(=O)c1ccccc1", "Potency": "inconclusive: 25.1 µM [inhibitor, partial curve]"}
{"smiles": "COc1cccc(C(=O)N2c3nc(-c4ccco4)nn3C3(CCCCC3)[C@@H]3CCCC[C@@H]32)c1", "activity change, negative = inhibition": "inactive: -12.2% [at 76.3 µM]"}
{"smiles": "Cc1cc(C)nc(-n2nc(C)cc2NC(=O)CN2CCCC2)n1", "activity change, negative = inhibition": "inactive: -0.788%"}
{"smiles": "CCN(CC)S(=O)(=O)c1ccc(NN=C2CCN(C)CC2)c([N+](=O)[O-])c1", "Potency": "inconclusive: 7.94 µM [inhibitor, full curve]"}
{"smiles": "CCN(CC)CCNC(=O)c1nn(-c2ccc(OC)c(Cl)c2)c(=O)c2c1c1ccccc1n2C", "Potency": "inconclusive: 28.2 µM [inhibitor, partial curve]"}
{"smiles": "CCN1CCCc2cc(CN(CCN3CCOCC3)C(=S)Nc3cccc(C)c3)ccc21", "Potency": "inconclusive: 3.52 µM [inhibitor, single point]"}
{"smiles": "COc1ccc(CNC(=O)c2ccc(NC(=O)N3CC4CCCN4c4ccccc43)cc2)cc1", "note": "(centres undefined)", "Potency": "active: 17.8 µM"}
{"smiles": "C/C(CC(=O)Nc1ccc(Cl)cc1Cl)=N\\NC(N)=S", "Potency": "active: 22.4 µM"}
{"smiles": "COc1ccc([N+](=O)[O-])cc1C1NN=C(c2ccccc2O)S1", "note": "(centres undefined)", "Potency": "inconclusive: 31.6 µM [activator, single point]"}
{"smiles": "COc1cc(/C(C)=N\\NC(=O)CSc2nc3ccccc3n2C)ccc1O", "Potency": "inconclusive: 31.6 µM [inhibitor, partial curve]"}
{"smiles": "CCc1cccc(NC(=O)c2cn3c4c(ccc(Cl)c4c2=O)OC(C)C3)c1", "note": "(centres undefined)", "activity change, negative = inhibition": "inactive: 17.9% [at 76.3 µM]"}
